The supplement of paper PMC11417369
± gives the standard deviation of the averaged measurements. This is one part of the list.

Tested on: PfAP2-G AP2 domain (GST-tagged)
Assay: gcPBM binding intensity (ln(normalized median fluorescence intensity)); higher = stronger DNA binding
Summary of the method: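 DNA-binding domains from P. falciparum, fused to GST and produced in E. coli, were put on an Agilent 4 × 180k double-stranded probe array for 1 h in 1× PBS holding 1% milk, 0.2 mg/ml BSA, 0.5% salmon testes DNA and 0.03% Triton X-100. Probes were primer-extended, 36 bp long and drawn from intergenic genomic regions, with negative controls included. After Alexa488 anti-GST antibody detection and a 488 nm scan, binding intensity was set as the highest Masliner-normalised natural-log median intensity across replicate spots of either probe orientation.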

Sequence | gcPBM binding intensity (ln)
CTTGTATATAAACACACACACACTTTCTTTTTTTAA [CACACA_site8602] | 9.94 ± 0.11
AAAAAAAAAAAAAAAAAAAAAAATATATATATATTT [GTGCAC_negctrl_site502] | 10.9 ± 0.46
ATTAATCAATATAGGCGTACAAAAAAAATAAATTAT [XGTACX_site1513] | 11.6 ± 0.86
CCCCTTAATTTATTTTGTACATATAATTTTTTTTTT [XGTACX_site3270] | 11.1 ± 0.55
ATTATTATTTAAAAAAGTACATTGAAGTTCATAATA [XGTACX_site3575] | 11.4 ± 1.1
ATTCATTTTTTGGGGGGTACACCCTTTTAAACATTT [XGTACX_site4797] | 11.8 ± 1.3
ATATTATAATTGAAGGTGCAAAATGTAATATAGATA [GTGCAC_site9661] | 10.09 ± 0.085
ATTTTTAATGTGATCACACATAAATATTATATATAT [CACACA_site5641] | 10.1 ± 0.15
TGAAATGATATATAAACACACATATATATATATATA [CACACA_site3511] | 9.94 ± 0.42
GTATAAAAAAATATATGTACTTATTTACATATATAT [XGTACX_site4744] | 11.3 ± 0.81
ACTATATTTGCCCTTTTAATCAGAACAAAAAAAAAA [CACACA_negctrl_site1051] | 10.3 ± 0.45
GTAAAAGTTAAAAAAACATGCAAAATTTAAAAAAAA [TGCATGCA_site637] | 9.69 ± 0.057
ATACATATATATATTCTACACACTTATAATATAATA [CACACA_site8782] | 9.885 ± 0.078
ATTATATTCCAAGTTTGTACATATATATAAAAGTAT [XGTACX_site1631] | 11 ± 0.52
ATAATATAAATATTAACACACATCCTTTTATGTATA [CACACA_site6685] | 9.74 ± 0.17
TTTCTTCTGCATTATGCACACTATAATTCGTTAAAA [CACACA_site5568] | 10.2 ± 0.27
TTTTCTTTTACAAAGGGTACATAATTTAAATTCATA [XGTACX_site3876] | 11.3 ± 0.86
AGTATAAAAATAAGCACACACACAAATATATATTTA [CACACA_site923] | 10.3 ± 0.27
AAATAAGCATATACAAACATGCATACATATAAATAA [CACACA_negctrl_site246] | 9.745 ± 0.049
AAAAAAAAAAAATCATGTACTTATTTTTCATTGTTG [XGTACX_site1542] | 11.3 ± 0.83
TATATGCACTTAATATGTACACAAAAAAAAAAAAAA [XGTACX_site6199] | 11.5 ± 1.2
CTTATATTAAAAACTTGTACACATGTTAAGAATTTT [XGTACX_site5857] | 11.3 ± 0.98

Sequence | gcPBM binding intensity (ln)
TTTATATATTATACATGTACATATTTATTTATATAA [XGTACX_site3474] | 11.3 ± 0.67
TATTTTATAATTTACCGTACATTAATTGTATTATTA [XGTACX_site5722] | 10.9 ± 0.54
ATATATTTTATATGTGTGCACTATATATATATATAT | 10.3 ± 0.47
ATATATTTTAAAGAAAGTACCCACCGTTTGAAGTCA [XGTACX_site2273] | 11.1 ± 0.7
ATTAATATATAACGTGCACACACACCGTTACGTATG [CACACA_site8543] | 10.5 ± 0.14
TGTTATATATATTGACTTAATAAATAAATAAATATA [GTGCAC_negctrl_site590] | 9.65 ± 0.27
TCTTATTTTATAAATATAAATATATATATATATATA [GTGCAC_negctrl_site479] | 9.94 ± 0.3
CTCCTCATATAATTTTGTACATAAAAAATTACCATT [XGTACX_site3879] | 11.2 ± 0.54
TTACAAAACACTTATACACACATATAAATATAAATA [CACACA_site7307] | 10 ± 0.11
TATTTTGCTCATCCATGTACACATAGATATATTTTA [XGTACX_site8244] | 11.4 ± 0.9
TTCTTTTCAGAAGGAAAGAATTATAACATATCATAA [XGTACX_negctrl_site548] | 9.79 ± 0.15
ATATTATGTGAAGAACGTACAAATTTTTACACTATA [XGTACX_site1485] | 11 ± 0.56
AATATATCAAAAATTGGATAGTTTCTTATAAAAAAT [CACACA_negctrl_site39] | 9.73 ± 0.028
CTATAAATAACAGAAAGTACATATACATGGATATAT [XGTACX_site3317] | 11.3 ± 0.8
TAAAAGAAATAAGGTGCACACATATACATATATATA [CACACA_site8037] | 10.5 ± 0.5
TTTCTAAATGTTTATATATATATATATATATAAATA [GTGCAC_negctrl_site397] | 9.65 ± 0.29
TTTTTTTTTTTTTTTACACACTATAGGGAAAAAAAA [CACACA_site1916] | 10 ± 0.33
ACATATATATATTTATATATATATATATATATGTGA [CACACA_negctrl_site613] | 9.58 ± 0.18
ATAAATAAAAATACATGAACAGGTCAGGTTATTTTT [CACACA_negctrl_site1007] | 9.91 ± 0.028
TTATATATAGAATAAACATGCATTTGTATATGAATA [TGCATGCA_site604] | 9.94 ± 0.18
AAAAATATAATATATCTAAAATTTTTCATTAAATAT [XGTACX_negctrl_site274] | 9.7 ± 0.071
AATAAAAAATAAAAAATAAACAGTATACATATATAT [GTGCAC_negctrl_site31] | 9.88 ± 0.071

Sequence | gcPBM binding intensity (ln)
TCACATACATTACTTACACACCATATTAATATATAC [CACACA_site8047] | 10.2 ± 0.11
TCATATTAATTTGATAGTACATATACTTTGAAGTCC [XGTACX_site3767] | 10.9 ± 0.57
TGTATATAAACAAGGGGTACAATAATATAAATAAAT [XGTACX_site8675] | 11.5 ± 0.93
TATGTATGCCCTAATGCATGTGAACAAAATAATATA [TGCATGCA_site407] | 10.2 ± 0.16
TATTTTAATCGTAAGTGTACTCTTTTAAGTATATGT [XGTACX_site8591] | 11.5 ± 1
ATTATAACACCTCCCCCCCTTTTTTTATGAAGACCA [CACACA_negctrl_site1043] | 11.8 ± 0.86
AAAATTAAAAAAATAAATACATTATATAATTAAAAA [CACACA_negctrl_site1426] | 9.705 ± 0.035
CATTATGTCATAAATGCACACATATATATATACATA [CACACA_site8454] | 10.1 ± 0.18
TATTTAAAAGTATATACACACAACTGGAATGAAAAG [CACACA_site4126] | 10.5 ± 0.15
ATGCAAATAATATAAAGTACACAACATCGCCCAAAG [XGTACX_site1825] | 11.3 ± 0.65
TTTTTTAAATTTTGAATTATAACTACATTAAAGAAA [GTGCAC_negctrl_site279] | 9.8 ± 0.33
AACAGACATAGACACACACACATATATTTATTTATA [CACACA_site7571] | 10.11 ± 0.085
ATTACATAACAATATACACACTATTGATTAAAGAGA [CACACA_site5602] | 9.9 ± 0.028
TGTTGTAACAAAAGTACACACACATTTCTATAAATT [CACACA_site8894] | 11.5 ± 0.98
ATAATATAAATAAAGCGTACTTAATTTTATATATAT [XGTACX_site4626] | 11.2 ± 0.83
TTTATTAGATAACGATAAACGAAAAAAAAAAAATAA [GTGCAC_negctrl_site81] | 9.86 ± 0.23
AGAGAAAGAAAGAAATGTACAAATACCTACACACAT [XGTACX_site3140] | 10.7 ± 0.28
TCAGTTAATGTATATGTACACACGGTGAGTATATAT [CACACA_site3346] | 11.2 ± 0.83
AATGGGGAAGGTTCTACACACAACGCAAATGCCTTA [CACACA_site2758] | 10.2 ± 0.23
AAATTATTATGTATTTGTACACATAAGAATATAAAA [XGTACX_site6841] | 11.4 ± 0.65
TATAAATAATGTTAAACACACATACCGATATATAAT [CACACA_site5499] | 9.935 ± 0.007
AATCAAAAAAAATGTTGTACGCCTAATTATAATTAA [XGTACX_site8906] | 11.6 ± 0.8

Sequence | gcPBM binding intensity (ln)
AATGAAATAAATAAGGGTACACATAAATATATATAT [XGTACX_site7006] | 11.5 ± 1.1
AAAAAACACCCATACACACACACACCGATATATATA [CACACA_site5808] | 10.1 ± 0.18
TATTCGTGCAATAATAGTACACTTATAAATTATTCA [XGTACX_site8993] | 11.3 ± 0.82
TTTTTTACAAATGATATCATTTCTTTAAATATTAAA [TGCATGCA_negctrl_site279] | 9.965 ± 0.035
CTATAAATGAATGTTTGTACTTAATAATAAAAGAAA [XGTACX_site3170] | 11.1 ± 0.78
TATTTTTTTCATAACAGTACAATAATATATATTTTT [XGTACX_site5739] | 10.6 ± 0.36
GCACACACAAAAAAAGCATGCATACTAGCTATTTTT [TGCATGCA_site18] | 9.64 ± 0.18
CATTTTTTATAATAATGTACATGTATTAAAAAAAAA [XGTACX_site6390] | 11.3 ± 0.88
TTTATAAGAATTACTAGTACATATAAGGAATTATAT [XGTACX_site3953] | 11 ± 0.66
TTATAAATTTAAAGTAGTACTATACTACTATTTTAT [XGTACX_site3038] | 11.3 ± 0.76
TATGGAATAATACGCGTACACACATATATATATTAA [CACACA_site132] | 11.6 ± 0.93
ATCCACAAAATAGGATGTACATATAAAATAAATAAA [XGTACX_site5362] | 11.2 ± 0.74
TTGTTTCAAGAAAAAATCGAAAAACATAGAAAAAAA [XGTACX_negctrl_site615] | 10.1 ± 0.16
ATATAATATTACAAATGTACTTTAAAAAATTAGGAG [XGTACX_site3897] | 11.2 ± 0.69
TTGCAATAATGTTGCACACTAAATAGTCATATATAA [CACACA_site263] | 10.1 ± 0.28
ACATATAAAATATATACACACATATAAATACATTAA [CACACA_site3867] | 10 ± 0.27
TATATATCAAAAATATGTACACAGAAATATATATTA [XGTACX_site6997] | 11.4 ± 0.73
AAGACTAATCTAGGTAGTACTTATATATCTTTATTT [XGTACX_site4572] | 11.4 ± 1.1
ATATAAGGAAGGGATGCACACAAAAGGGTACATAAG [CACACA_site9328] | 11.5 ± 0.83
TTTTAGTGAAATGAGTGTACATTATATATTTTTTTT [XGTACX_site4892] | 11 ± 0.32
ATTCTATATATATAAACACACAAATATTTTTATATA [CACACA_site1677] | 9.875 ± 0.064
